# Where a name gives a salt, the structure may show the parent alone. The list shows a part of the results. Many values rest on one well or one pass, so single values are uncertain.
# Test system: KCNR
# Assay: area under viability curve (10 nM-1 µM), viability relative to solvent or trametinib-only control (AUC (arbitrary, % viability x concentration range)); higher = less growth inhibition (more viable cells)
# Settings: 72 h compound exposure (96 h after seeding) h; trametinib co-treatment 0 µM
# Method: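 Four neuroblastoma cell lines (KCNR, SKNBE, SJNB8, SKNAS) were seeded in 384-well plates. At 24 h, 1 µM trametinib or DMSO was added, followed by library compounds at 10 nM, 100 nM and 1 µM. Viability was read by MTT at 96 h and normalised to solvent-treated cells (DMSO arm) or to trametinib-only cells (trametinib arm). The area under the 3-point viability curve was computed in GraphPad Prism; units are as given (approx. 100000 = no effect).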
# 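Further: KCNR is a neuroblastoma cell line carrying an ALK mutation, in this DMSO arm without trametinib, viability was normalised to solvent-treated cells.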
row,Compound,area under viability curve
1,Cc1ccc2nc(N)[nH]c(=O)c2c1Sc1ccncc1 [Nolatrexed 2HCl],94900
2,CC(=O)O[C@H]1CC[C@@]2(C)C(=CC[C@@H]3[C@@H]2CC[C@]2(C)C(c4cccnc4)=CC[C@@H]32)C1 [Abiraterone acetate],104000
3,COc1cc2c(Oc3ccc4[nH]c(C)cc4c3F)ncnc2cc1OCCCN1CCCC1 [Cediranib],92800
4,CC(C)C1O[C@H](CN)[C@@H](CN)O1.O=C([O-])CC(=O)[O-].[Pt+2] [Eptaplatin],101000
5,N.N.O=C([O-])C[O-].[Pt+2] [Nedaplatin],101000
6,Cc1cccc(Oc2nc3c(C)cccn3c(=O)c2C=C(C#N)c2nc3ccccc3s2)c1,99100
7,Cc1nc(=O)c2cc(CN(C)c3ccc(C(=O)N[C@@H](CCC(=O)O)C(=O)O)s3)ccc2[nH]1 [Raltitrexed],60500
8,Cc1ccc(NC(=O)c2ccc(CN3CCN(C)CC3)cc2)cc1Nc1nccc(-c2cccnc2)n1 [Imatinib mesylate],105000
9,CC1(C)CNc2cc(NC(=O)c3cccnc3NCc3ccncc3)ccc21 [Motesanib],106000
10,CCNC(=O)[C@@H]1CCCN1C(=O)[C@H](CCCNC(=N)N)NC(=O)[C@H](CC(C)C)NC(=O)[C@@H](COC(C)(C)C)NC(=O)[C@H](Cc1ccc(O)cc1)NC(=O)[C@H](CO)NC(=O)[C@H](Cc1c[nH]c2ccccc12)NC(=O)[C@H](Cc1cnc[nH]1)NC(=O)[C@@H]1CCC(=O)N1 [Buserelin acetate],105000
11,Cc1[nH]c2ccccc2c1CCNCc1ccc(/C=C/C(=O)NO)cc1 [Panobinostat],4440
12,CC(=O)Nc1cccc(-n2c(=O)n(C3CC3)c(=O)c3c(Nc4ccc(I)cc4F)n(C)c(=O)c(C)c32)c1 [Trametinib (DMSO solvate)],76700
13,Nc1ccccc1NC(=O)CCCCCCC(=O)Nc1ccccc1,103000
14,CC(=O)O[C@H]1C(=O)[C@@]2(C)[C@H]([C@H](OC(=O)c3ccccc3)[C@]3(O)C[C@H](OC(=O)[C@H](O)[C@@H](NC(=O)c4ccccc4)c4ccccc4)C(C)=C1C3(C)C)[C@]1(OC(C)=O)CO[C@@H]1C[C@@H]2O [Paclitaxel],14100
15,C[C@]1(c2nc3c(C(N)=O)cccc3[nH]2)CCCN1 [Veliparib],106000
16,CCCC(CCC)C(=O)NO [Valproic acid hydroxamate],102000
17,CN1CC[C@H](c2c(O)cc(O)c3c(=O)cc(-c4ccccc4Cl)oc23)[C@H](O)C1 [Flavopiridol],53900
18,O=C(/C=C/C#Cc1cccc(NS(=O)(=O)c2ccccc2)c1)NO [Oxamflatin],42300
19,Cc1ccc(NC(=O)c2ccc(CN3CCN(C)CC3)cc2)cc1Nc1nccc(-c2cccnc2)n1 [Imatinib base],90700
20,COc1cccc2c1C(=O)c1c(O)c3c(c(O)c1C2=O)C[C@@](O)(C(C)=O)C[C@@H]3O[C@H]1C[C@H](N)[C@H](O)[C@H](C)O1 [Daunorubicin HCl],8410

# Same assay, conditions: 72 h compound exposure (96 h after seeding) h; trametinib co-treatment 1 µM
row,Compound,area under viability curve
1,Cc1ccc2nc(N)[nH]c(=O)c2c1Sc1ccncc1 [Nolatrexed 2HCl],98300
2,CC(=O)O[C@H]1CC[C@@]2(C)C(=CC[C@@H]3[C@@H]2CC[C@]2(C)C(c4cccnc4)=CC[C@@H]32)C1 [Abiraterone acetate],96800
3,COc1cc2c(Oc3ccc4[nH]c(C)cc4c3F)ncnc2cc1OCCCN1CCCC1 [Cediranib],96700
4,CC(C)C1O[C@H](CN)[C@@H](CN)O1.O=C([O-])CC(=O)[O-].[Pt+2] [Eptaplatin],107000
5,N.N.O=C([O-])C[O-].[Pt+2] [Nedaplatin],102000
6,Cc1cccc(Oc2nc3c(C)cccn3c(=O)c2C=C(C#N)c2nc3ccccc3s2)c1,99300
7,Cc1nc(=O)c2cc(CN(C)c3ccc(C(=O)N[C@@H](CCC(=O)O)C(=O)O)s3)ccc2[nH]1 [Raltitrexed],51500
8,Cc1ccc(NC(=O)c2ccc(CN3CCN(C)CC3)cc2)cc1Nc1nccc(-c2cccnc2)n1 [Imatinib mesylate],101000
9,CC1(C)CNc2cc(NC(=O)c3cccnc3NCc3ccncc3)ccc21 [Motesanib],107000
10,CCNC(=O)[C@@H]1CCCN1C(=O)[C@H](CCCNC(=N)N)NC(=O)[C@H](CC(C)C)NC(=O)[C@@H](COC(C)(C)C)NC(=O)[C@H](Cc1ccc(O)cc1)NC(=O)[C@H](CO)NC(=O)[C@H](Cc1c[nH]c2ccccc12)NC(=O)[C@H](Cc1cnc[nH]1)NC(=O)[C@@H]1CCC(=O)N1 [Buserelin acetate],99100
11,Cc1[nH]c2ccccc2c1CCNCc1ccc(/C=C/C(=O)NO)cc1 [Panobinostat],1830
12,CC(=O)Nc1cccc(-n2c(=O)n(C3CC3)c(=O)c3c(Nc4ccc(I)cc4F)n(C)c(=O)c(C)c32)c1 [Trametinib (DMSO solvate)],107000
13,Nc1ccccc1NC(=O)CCCCCCC(=O)Nc1ccccc1,96400
14,CC(=O)O[C@H]1C(=O)[C@@]2(C)[C@H]([C@H](OC(=O)c3ccccc3)[C@]3(O)C[C@H](OC(=O)[C@H](O)[C@@H](NC(=O)c4ccccc4)c4ccccc4)C(C)=C1C3(C)C)[C@]1(OC(C)=O)CO[C@@H]1C[C@@H]2O [Paclitaxel],20600
15,C[C@]1(c2nc3c(C(N)=O)cccc3[nH]2)CCCN1 [Veliparib],103000
16,CCCC(CCC)C(=O)NO [Valproic acid hydroxamate],107000
17,CN1CC[C@H](c2c(O)cc(O)c3c(=O)cc(-c4ccccc4Cl)oc23)[C@H](O)C1 [Flavopiridol],49400
18,O=C(/C=C/C#Cc1cccc(NS(=O)(=O)c2ccccc2)c1)NO [Oxamflatin],23100
19,Cc1ccc(NC(=O)c2ccc(CN3CCN(C)CC3)cc2)cc1Nc1nccc(-c2cccnc2)n1 [Imatinib base],92000
20,COc1cccc2c1C(=O)c1c(O)c3c(c(O)c1C2=O)C[C@@](O)(C(C)=O)C[C@@H]3O[C@H]1C[C@H](N)[C@H](O)[C@H](C)O1 [Daunorubicin HCl],3040

# Reference: the supplement of paper PMC9990464
